Assay results taken from PubChem BioAssay (Tox21).
This list was built around the results that the source calls inconclusive (neither active nor inactive); the mix of calls is not that of the screen. For some assays here: Potencies of inconclusive entries are left out as doubtful fits. Calls of active or inactive are those of the source. Unless noted, the call rests on the fitted dose curve; in most records, active means well fitted curve in the direction sought with a large enough effect in the repeat runs; inconclusive means weak or mixed curves; inactive means no such curve, though single readings can be large; an effect the other way counts as inactive or inconclusive.

Experiments:
[1] = qHTS assay for small molecule agonists of the p53 signaling pathway - cell viability (AID 651633; calls by dose curve; further: nearly all actives have a fitted effect of over 30% in size; further: potency means the concentration at half of the fitted maximal effect;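 on activity change, negative = cytotoxicity: p53RE-bla HCT reporter cells with a stable beta-lactamase p53 reporter; on the % scale 0 is the no-effect control and ±100 the full control effect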)
Summary of the method: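 p53RE-bla cells, seeded at 4,000 per well and rested 5 h at 37 C/5% CO2, received compounds in DMSO for 16 h at 37 C. CellTiter-Glo was then added, and luminescence was read after 30 min at room temperature to gauge cytotoxicity.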

[2] = qHTS assay for small molecule agonists of the antioxidant response element (ARE) signaling pathway - cell viability counter screen (AID 743203; calls by dose curve; further: nearly all actives have a fitted effect of over 55% in size; further: potency means the concentration at half of the fitted maximal effect); conditions: ARE-bla HepG2 viability, CellTiter-Glo luminescence, 16 h; viability change, negative = cytotoxic: at 73.3 µM (top of the series)
Summary of the method: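 Cells (ARE-bla HepG2, 2,000/well) receive DMSO-dissolved compounds after a 5 hrs rest. Plates incubate 16 hrs at 37C/5% CO2. CellTiter-Glo luminescence is then recorded after 30 min at room temperature.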

[3] = target: Androgen receptor (Homo sapiens) (UniProt P10275); experiment: qHTS assay to identify small molecule antagonists of the androgen receptor (AR) signaling pathway (AID 743035; active means well fitted inhibition curve with a large enough effect in the signal ratio in the repeat runs, not every such curve was filed as active; inconclusive means weak or mixed curves, or effect the other way; inactive means no such curve, though single readings can be large or run the other way; the % refers to the signal ratio; further: on the % scale 0 is the no-effect control and ±100 the full control effect); conditions: HEK293 AR-UAS-bla, R1881-stimulated, beta-lactamase FRET, 16 h; activity change, negative = inhibition: at 58.5 µM (top of the series) unless noted
UniProt P10275, sequence (P10275 whole entry, looked up): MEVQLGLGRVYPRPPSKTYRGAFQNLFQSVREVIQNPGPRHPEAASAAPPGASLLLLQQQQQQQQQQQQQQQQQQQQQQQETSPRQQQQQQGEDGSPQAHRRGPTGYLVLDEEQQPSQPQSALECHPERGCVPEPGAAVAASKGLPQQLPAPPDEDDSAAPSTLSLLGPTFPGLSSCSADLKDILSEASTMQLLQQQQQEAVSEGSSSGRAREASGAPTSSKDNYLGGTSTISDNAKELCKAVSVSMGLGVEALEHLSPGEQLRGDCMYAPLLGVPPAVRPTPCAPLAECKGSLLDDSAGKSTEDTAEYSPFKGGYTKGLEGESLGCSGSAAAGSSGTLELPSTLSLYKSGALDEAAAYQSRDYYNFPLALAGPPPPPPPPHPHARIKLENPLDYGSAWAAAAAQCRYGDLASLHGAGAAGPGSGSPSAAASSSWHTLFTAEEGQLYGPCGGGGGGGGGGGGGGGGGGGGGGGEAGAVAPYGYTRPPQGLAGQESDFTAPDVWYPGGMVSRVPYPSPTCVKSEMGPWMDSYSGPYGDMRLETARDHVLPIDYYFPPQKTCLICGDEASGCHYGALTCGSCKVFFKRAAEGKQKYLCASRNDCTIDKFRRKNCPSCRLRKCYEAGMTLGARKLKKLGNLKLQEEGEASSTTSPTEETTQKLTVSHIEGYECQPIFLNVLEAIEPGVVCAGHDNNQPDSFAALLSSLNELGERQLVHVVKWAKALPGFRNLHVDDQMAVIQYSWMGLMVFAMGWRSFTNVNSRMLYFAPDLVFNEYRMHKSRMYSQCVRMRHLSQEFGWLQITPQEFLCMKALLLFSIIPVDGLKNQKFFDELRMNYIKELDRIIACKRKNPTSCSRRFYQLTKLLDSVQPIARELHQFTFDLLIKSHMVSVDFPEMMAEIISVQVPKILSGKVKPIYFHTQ
Summary of the method: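 Cell line: GeneBLAzer AR-UAS-bla GripTite (HEK293). Stimulus: R1881 added after compound. Exposure: 16 h, 37C, 5% CO2. Readout: LiveBLAzer B/G FRET fluorescence after 2 h at room temperature.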

[4] = qHTS RealTime-Glo MT Cell Viability Assay in HEK293 cells - 0 hour (AID 1224880); further: nearly all actives have a fitted effect of over 45% in size; further: potency means the concentration at half of the fitted maximal effect
Summary of the method: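 qHTS format; HEK293 cells with NanoLuc/prosubstrate reagent, 37 C/5% CO2 for 5 h pre-dosing; compounds 23 nL in DMSO; luminescence at each time point reflects viable cells.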

[5] = A CellTox Green Cytotoxicity Assay to monitor cytotoxicity in HEK293 cells - 32 hour (AID 1224881); further: nearly all actives have a fitted effect of over 40% in size; further: potency means the concentration at half of the fitted maximal effect
Summary of the method: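 Each value comes from one timepoint of a single continuous run in which HEK293 cells with CellTox Green were exposed to compound for up to 40 h at 37 C, dye fluorescence rising with cell death.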

[6] = target: Bile acid receptor (Homo sapiens) (UniProt Q96RI1); experiment: qHTS assay to identify small molecule agonists of the farnesoid-X-receptor (FXR) signaling pathway (AID 743220; active means well fitted activation curve with a large enough effect in the signal ratio in the repeat runs, not every such curve was filed as active; inconclusive means weak or mixed curves, or effect the other way; the % refers to the signal ratio; further: on the % scale 0 is the no-effect control and ±100 the full control effect); conditions: HEK293T FXR-UAS-bla, beta-lactamase FRET ratio, 16 h; activation: at 62.6 µM (top of the series) unless noted
UniProt Q96RI1, sequence (Q96RI1 whole entry, looked up): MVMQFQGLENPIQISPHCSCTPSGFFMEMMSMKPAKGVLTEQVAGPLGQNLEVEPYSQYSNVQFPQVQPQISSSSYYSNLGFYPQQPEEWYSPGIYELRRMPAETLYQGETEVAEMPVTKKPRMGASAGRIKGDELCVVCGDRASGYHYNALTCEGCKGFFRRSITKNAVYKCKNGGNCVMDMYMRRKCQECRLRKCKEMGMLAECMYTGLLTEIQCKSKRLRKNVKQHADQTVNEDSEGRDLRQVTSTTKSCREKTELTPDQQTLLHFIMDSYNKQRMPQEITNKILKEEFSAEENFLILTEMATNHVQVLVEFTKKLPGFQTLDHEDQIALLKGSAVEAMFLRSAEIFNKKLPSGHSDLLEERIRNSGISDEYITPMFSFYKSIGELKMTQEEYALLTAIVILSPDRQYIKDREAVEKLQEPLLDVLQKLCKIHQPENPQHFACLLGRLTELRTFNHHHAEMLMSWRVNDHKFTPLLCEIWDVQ
Summary of the method: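 Beta-lactamase reporter under UAS control in GeneBLAzer FXR HEK 293T cells (5000/well) measured with LiveBLAzer FRET substrate after 2 h at room temperature. Compound exposure lasted 16 h at 37C.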

[7] = qHTS assay to identify small molecule antagonists of the estrogen related receptor (ERR) signaling pathway from Tox21 library (AID 1224848); further: on the % scale 0 is the no-effect control and ±100 the full control effect; nearly all actives have a fitted effect of over 50% in size
Summary of the method: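 Screening used an ERR reporter line supplied by NTP, exposed for 18 h at 37 C to library compounds delivered in DMSO. Signal was luciferase luminescence developed with ONE-Glo at room temperature for 30 min.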

[8] = qHTS assay to identify small molecule antagonists of the estrogen related receptor signaling pathway with the pleiotropic PPARgamma coactivator (PGC) from Tox21 10K library (AID 1224841; call rule not given here; further: actives are mostly falling curves and most rising ones were filed inactive; nearly all actives have a fitted effect of over 50% in size; further: potency means the concentration at half of the fitted maximal effect)
Summary of the method: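 Compound exposure ran 18 hours at 37 C in PGC/ERR cells (2,000/well) that had first rested 6 hours in a 37 C/5% CO2 incubator. Luciferase activity was then detected with One-Glo after a 30-minute room-temperature step.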

[9] = qHTS assay to identify small molecule HDAC inhibitors (AID 1259364); further: nearly all actives have a fitted effect of over 45% in size; further: potency means the concentration at half of the fitted maximal effect
Summary of the method: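 Endogenous HDAC class I/II activity was measured in wild-type HCT-116 cells by HDAC-Glo luminescence after 2 h compound treatment.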

[10] = qHTS assay to identify small molecule agonists of the androgen receptor (AR) signaling pathway in the presence of an antagonist - cell viability counter screen (AID 1259379); further: nearly all actives have a fitted effect of over 25% in size; further: potency means the concentration at half of the fitted maximal effect
Summary of the method: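 In MDA-kb2 cells (human breast carcinoma, MMTV-luciferase), compounds at 15 concentrations plus 3.0uM nilutamide; 16 hr, 37C, 0% CO2; CellTiter-Fluor fluorescence read for viability.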

[11] = qHTS assay for small molecules that induce genotoxicity in human embryonic kidney cells expressing luciferase-tagged ATAD5 - cell viability (AID 651634; calls by dose curve; further: potency means the concentration at half of the fitted maximal effect; nearly all actives have a fitted effect of over 25% in size)
Summary of the method: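 Live-cell protease activity (CellTiter-Fluor, fluorescence) indicates viability. HEK293T cells with luciferase-tagged ATAD5; 15.5 hr compound treatment at 37C.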

[12] = qHTS assay to identify small molecule antagonists of the androgen receptor (AR) signaling pathway - cell viability counter screen (AID 743033; further: on the % scale 0 is the no-effect control and ±100 the full control effect; nearly all actives have a fitted effect of over 45% in size); conditions: AR-bla HEK293 viability, CellTiter-Glo luminescence, 16 h; activity change, negative = cytotoxicity: at 58.5 µM (top of the series) unless noted
[13] = A CellTox Green Cytotoxicity Assay to monitor cytotoxicity in HepG2 cells - 8 hour (AID 1224890); further: nearly all actives have a fitted effect of over 45% in size; further: potency means the concentration at half of the fitted maximal effect
Summary of the method: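 Continuous culture of HepG2 cells with a membrane-impermeant DNA dye; rising fluorescence marks dead cells. Compound exposure lasted up to 40 h at 37 C, with reads every 8 h from 0 h.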

[14] = qHTS assay for small molecules that induce genotoxicity in human embryonic kidney cells expressing luciferase-tagged ATAD5 (AID 651632); further: nearly all actives have a fitted effect of over 15% in size; further: potency means the concentration at half of the fitted maximal effect
Summary of the method: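 Genotoxicity read-out via ATAD5-luciferase: HEK293T cells, 16 hr compound incubation at 37C, Amplite detection.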

[15] = qHTS assay to identify small molecule agonists of the estrogen receptor alpha (ER-alpha) signaling pathway in the presence of an antagonist - cell viability counter screen (AID 1259386);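 further: cells exposed to compounds for 22 h at 37 °C before the viability read; on the % scale 0 is the no-effect control and ±100 the full control effect; nearly all actives have a fitted effect of over 30% in size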
Summary of the method: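 Fluorescent CellTiter-Fluor viability signal from VM7Luc4E2 cells, with the reagent added during the final hour of a 22hr compound exposure at 37C in the presence of 10.0nM ICI-182,780.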

[16] = system: thyroid hormone receptor (rat, GH3 cells); experiment: qHTS assay to identify small molecule agonists of the thyroid receptor (TR) signaling pathway (AID 743066; calls by dose curve; further: on the % scale 0 is the no-effect control and ±100 the full control effect); conditions: GH3.TRE-Luc cells, TR agonist luciferase, 24 h; activation: at 83.9 µM (top of the series) unless noted
[17] = target: Estrogen receptor (Homo sapiens) (UniProt P03372); experiment: qHTS assay to identify small molecule antagonists of the estrogen receptor alpha (ER-alpha) signaling pathway using the BG1 cell line in the presence of 0.1 nM 17-beta-estradiol (AID 1259244); further: on the % scale 0 is the no-effect control and ±100 the full control effect; nearly all actives have a fitted effect of over 50% in size
UniProt P03372, sequence (P03372 whole entry, looked up): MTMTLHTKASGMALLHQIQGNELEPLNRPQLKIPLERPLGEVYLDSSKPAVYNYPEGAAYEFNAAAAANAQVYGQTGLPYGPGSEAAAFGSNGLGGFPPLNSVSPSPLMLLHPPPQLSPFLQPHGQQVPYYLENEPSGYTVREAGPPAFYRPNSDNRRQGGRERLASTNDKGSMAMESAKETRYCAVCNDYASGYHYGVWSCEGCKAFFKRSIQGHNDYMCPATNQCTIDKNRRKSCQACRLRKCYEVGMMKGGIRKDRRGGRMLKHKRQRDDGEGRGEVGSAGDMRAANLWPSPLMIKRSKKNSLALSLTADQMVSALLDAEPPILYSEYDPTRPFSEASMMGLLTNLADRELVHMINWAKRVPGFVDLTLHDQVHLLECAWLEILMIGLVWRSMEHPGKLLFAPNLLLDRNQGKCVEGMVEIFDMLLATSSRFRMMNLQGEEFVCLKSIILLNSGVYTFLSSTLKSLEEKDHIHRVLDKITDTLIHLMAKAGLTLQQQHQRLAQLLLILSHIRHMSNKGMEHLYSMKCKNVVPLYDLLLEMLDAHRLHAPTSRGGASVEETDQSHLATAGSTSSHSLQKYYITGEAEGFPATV
Summary of the method: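 Quantitative high-throughput screen in VM7Luc4E2 cells: compound plus 0.1 nM E2 (final), 22 h, 37C, 5% CO2; ONE-Glo added, 30 min room temperature, luminescence measured.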

[18] = target: Estrogen receptor (Homo sapiens) (UniProt P03372); experiment: qHTS assay to identify small molecule agonists of the estrogen receptor alpha (ER-alpha) signaling pathway (AID 743075; calls by dose curve;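 further: HEK293 GripTite cells with ER-alpha and UAS-driven beta-lactamase reporter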; further: potency means the concentration at half of the fitted maximal effect); conditions: HEK293 ER-alpha-UAS-bla, beta-lactamase FRET ratio, 18 h; activation: at 70.1 µM (top of the series)
[19] = target: Luciferin 4-monooxygenase (Photinus pyralis) (UniProt P08659); experiment: qHTS assay to identify small molecule inhibitors of firefly luciferase (AID 1224835); further: potency means the concentration at half of the fitted maximal effect; nearly all actives have a fitted effect of over 25% in size
UniProt P08659, sequence (P08659 whole entry, looked up): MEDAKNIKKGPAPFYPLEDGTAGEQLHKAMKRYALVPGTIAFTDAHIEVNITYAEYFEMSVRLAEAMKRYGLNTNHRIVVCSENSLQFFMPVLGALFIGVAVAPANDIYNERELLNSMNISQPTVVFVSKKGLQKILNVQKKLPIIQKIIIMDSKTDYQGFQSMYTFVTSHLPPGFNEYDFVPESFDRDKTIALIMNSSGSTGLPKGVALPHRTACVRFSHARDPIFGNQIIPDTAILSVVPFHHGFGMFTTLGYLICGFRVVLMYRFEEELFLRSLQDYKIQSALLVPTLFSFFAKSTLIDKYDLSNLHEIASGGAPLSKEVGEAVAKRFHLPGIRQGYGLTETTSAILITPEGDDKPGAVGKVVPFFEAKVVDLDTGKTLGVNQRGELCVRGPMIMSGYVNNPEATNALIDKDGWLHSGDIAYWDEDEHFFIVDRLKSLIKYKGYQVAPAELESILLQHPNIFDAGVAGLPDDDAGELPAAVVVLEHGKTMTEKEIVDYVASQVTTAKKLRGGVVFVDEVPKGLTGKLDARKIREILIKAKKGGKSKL
Summary of the method: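 Quantitative HTS format; KM concentrations of both substrates. Purified P. pyralis FLuc activity quantified from luminescence images.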
Tags describe the fitted curve by direction and shape or compound fluorescence and quenching.

With `O=C(CCCCCCC(=O)Nc1ccccc1)NO` the Potency [1] was inconclusive [cytotoxic, partial curve, poor fit] and the Potency [2] was inconclusive [cytotoxic, partial curve, poor fit].

In the case of `CC1(C)C2=CCCC(C)(C)[C@]23CC[C@H]1C3`, the Potency [3] is reported as “inactive”, the Potency [4] is reported as active: 24.5 µM and the Potency [5] is reported as inconclusive [activator, partial curve].

With `N=C(N=C(N)N)N1CCOCC1` the Potency [6] was “inactive” and the Potency [7] was “inactive”.

For `O=C(O)/C=C/c1ccc(Cn2ccnc2)cc1`, the Potency [1] was “inactive”.

With `CC(=O)OC/C=C/c1ccccc1` the Potency [8] was “inactive” and the Potency [7] was “inactive”.

In the case of `COC(=O)CSc1cc(N=c2sc(=O)n3n2CCCC3)c(F)cc1Cl`, the activity change, negative = inhibition [3] is reported as inconclusive: -4.15%.

In the case of `NC(=O)c1ccccc1Cl`, the Potency [8] is reported as inconclusive [falling, partial curve, poor fit] and the Potency [9] is reported as “inactive”.

In the case of `Oc1ccccc1F`, the Potency [5] is reported as “inactive”.

In the case of `NC(=O)NC1N=C([O][Al])NC1=O` (centres undefined), the Potency [10] is reported as “inactive”.

With `CCCOC(=O)CC` the Potency [2] was inconclusive [rising, full curve, poor fit].

With `NC(=O)Cc1cccc2ccccc12` the Potency [6] was “inactive”.

In the case of `NCCNCCN`, the Potency [11] is reported as inconclusive [falling, partial curve] and the Potency [5] is reported as “inactive”.

With `O=[N+]([O-])c1cc([N+](=O)[O-])c2ccc(S(=O)(=O)O)cc2c1O` the Potency [11] was active: 21.6 µM.

In the case of `CC(=O)OC1CC(C)OC(C)O1` (centres undefined), the Potency [12] is reported as “inactive”, the Potency [6] is reported as “inactive” and the Potency [8] is reported as inconclusive [falling, single point].

In the case of `CCCCC(CC)COC(=O)COc1ccc(Cl)cc1C` (centres undefined), the Potency [1] is reported as “inactive”.

In the case of `COc1ccc2c(c1)CCCC2=O`, the Potency [2] is reported as “inactive” and the Potency [5] is reported as “inactive”.

With `CCCCCCCCC(CO)CCCCCC` (centres undefined) the Potency [12] was “inactive” and the Potency [4] was “inactive”.

With `CC(=O)CCC=C(C)C` the Potency [13] was inconclusive [activator, partial curve, poor fit].

With `C[C@H]1COc2c(C3(N)CC3)c(F)cc3c(=O)c(C(=O)O)cn1c23` the Potency [14] was “inactive”.

In the case of `Cc1ccc(Nc2ccc(O)c3c2C(=O)c2ccccc2C3=O)cc1`, the Potency [10] is reported as inconclusive [cytotoxic, full curve].

With `NS(=O)(=O)c1ccccc1Cl` the Potency [7] was “inactive” and the Potency [15] was “inactive”.

In the case of `NCCN1CCNCC1`, the Potency [16] is reported as “inactive”.

With `COCCO` the Potency [10] was “inactive”.

In the case of `CC(C(O)c1ccc(O)cc1)N1CCC(Cc2ccccc2)CC1` (centres undefined), the Potency [17] is reported as “inactive” and the Potency [9] is reported as “inactive”.

For `C=C1[C@H]2CC[C@@H]3[C@H]2C(C)(C)CCC[C@]13C`, the Potency [6] was “inactive”.

In the case of `COc1ccc(CCC(C)=O)cc1`, the Potency [4] is reported as inconclusive [rising, single point].

For `CN(C)CCN(C)CCO`, the Potency [17] was “inactive”.

With `CCN(CCC#N)c1ccc(N=Nc2ccc([N+](=O)[O-])cc2)cc1` the Potency [9] was active: 15.4 µM.

For `Cc1ccc2n[nH]nc2c1`, the Potency [7] was “inactive” and the Potency [10] was “inactive”.

For `Nc1ccn([C@@H]2O[C@H](CO)[C@@H](O)C2(F)F)c(=O)n1`, the Potency [1] was inconclusive [cytotoxic, partial curve, poor fit] and the Potency [6] was “inactive”.

For `CC(C)(Oc1ccc(CCNC(=O)c2ccc(Cl)cc2)cc1)C(=O)O`, the Potency [18] was “inactive” and the Potency [19] was inconclusive [inhibitor, partial curve].

For `COc1c2occc2c(OC)c2c(=O)cc(C)oc12`, the Potency [12] was “inactive” and the Potency [13] was “inactive”.

In the case of `CNc1ncnc2nc[nH]c12`, the Potency [14] is reported as inconclusive [activator, partial curve].

For `CCC(C(=O)OCCOCCN(CC)CC)c1ccccc1` (centres undefined), the Potency [5] was “inactive” and the Potency [17] was “inactive”.

In the case of `c1ccc(B(c2ccccc2)c2ccccc2)cc1`, the Potency [14] is reported as inconclusive [activator, partial curve, poor fit], the Potency [18] is reported as active: 30.9 µM [activator] and the Potency [9] is reported as inconclusive [inhibitor].

With `O=C(O)CONC(=O)c1ccccc1` the Potency [15] was “inactive”.

In the case of `C=CC(C)CCCC(C)(C)O` (centres undefined), the Potency [16] is reported as “inactive”.

In the case of `COc1ccc(S(=O)(=O)N2c3ccc(Cl)cc3[C@@](O)(c3ccccc3Cl)[C@H]2C(=O)N2CCC[C@@H]2C(N)=O)cc1OC`, the Potency [12] is reported as “inactive”.

For `O=C(O)Cc1ccc(CCNS(=O)(=O)c2ccc(Cl)cc2)cc1`, the Potency [4] was “inactive”.
